PubChem BioAssay (NCATS)
Inconclusive means that the source gave no clear call. Such entries were picked first, then a sample of the others. For part of these data: Potencies beside an inconclusive call are fits to weak or partial responses and may not hold up. Calls of active or inactive are those of the source. Unless noted, calls follow the shape of the dose curve; as a rule, active = well fitted curve in the direction sought with a large enough effect; inconclusive = small, poorly fitted or top-dose-only effect, or another doubt; inactive = no such curve, though single readings can be large; an effect the other way counts as inactive or inconclusive.

Experiments:
[1] = qHTS for differential inhibitors of proliferation of Plasmodium falciparum line 7G8 (AID 1815);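 also: potency is read from the fitted curve at half-maximal effect; parasite growth measured after three days of incubation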
[2] = qHTS for differential inhibitors of proliferation of Plasmodium falciparum line GB4 (AID 1816); settings: Potency: Plasmodium falciparum GB4 proliferation inhibition;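 also: potency is read from the fitted curve at half-maximal effect; parasite growth measured after 72 h incubation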
[3] = qHTS for differential inhibitors of proliferation of Plasmodium falciparum line D10 (AID 1877);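 also: potency is read from the fitted curve at half-maximal effect; parasites grown with compound for 72 h before DNA staining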
[4] = qHTS for differential inhibitors of proliferation of Plasmodium falciparum line W2 (AID 1883); settings: Potency: Plasmodium falciparum W2 proliferation inhibition;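 also: potency is read from the fitted curve at half-maximal effect; parasites grown with compound for 72 h before lysis and staining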
[5] = qHTS for differential inhibitors of proliferation of Plasmodium falciparum line HB3 (AID 1886); settings: Potency: Plasmodium falciparum HB3 proliferation inhibition;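 also: potency is read from the fitted curve at half-maximal effect; parasites grown with compound for 72 h before SYBR Green readout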
[6] = target: Ferritin light chain (Equus caballus) (UniProt P02791); experiment: qHTS Validation Assay for Identification of Novel General Anesthetics (AID 2323); also: potency is read from the fitted curve at half-maximal effect
In short: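 Apoferritin from horse spleen (10 uM) was mixed with 1-aminoanthracene at 50% saturation in PBS, then compounds were added. After 10 min at room temperature, fluorescence was read (ex 380 nm, em 535 nm) and normalized to free-probe and complex controls.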

[7] = target: RecQ-like DNA helicase BLM (Homo sapiens) (UniProt P54132); experiment: qHTS Validation Assay for Inhibitors of Bloom's syndrome helicase (BLM) (AID 2364)
In short: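 Forked 20-bp duplex substrate (200 nM, TAMRA/BHQ-2) plus 2 mM ATP added after 15 min compound preincubation with 50 nM enzyme, pH 8.0, poly(dI-dC) 2.5 ug/ml. Strand separation followed by fluorescence (525/598 nm) over 2 h, normalized to enzyme-free and DMSO controls.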

[8] = Validation screen for small molecules that induce DNA re-replication in MCF 10A normal breast cells (AID 463097); also: potency is read from the fitted curve at half-maximal effect; nearly all actives have a fitted effect of over 60% in size
In short: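 DNA re-replication was detected as a rise in nuclei with elevated Hoechst fluorescence after a 48 hr compound exposure of MCF 10A cells at 37 C.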

[9] = target: M-phase phosphoprotein 8 (Homo sapiens) (UniProt Q99549); experiment: qHTS Validation Assay for Inhibitors for MPP8 Chromodomain Interactions with Methylated Histone Tails (AID 488949); settings: AlphaScreen MPP8 binding to H3K9me3 peptide; activity change, negative = inhibition: at 57.1 µM (top of the series) unless noted; also: potency is read from the fitted curve at half-maximal effect; nearly all actives have a fitted effect of over 55% in size
In short: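 Disruption of the preformed MPP8–trimethyl-H3K9 peptide complex (both 50 nM, 30 min, RT) is measured after 30 min compound exposure, using AlphaScreen proximity beads; aurintricarboxylic acid titration serves as plate control.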

[10] = target: Transient receptor potential cation channel subfamily V member 1 (Homo sapiens) (UniProt Q8NER1); experiment: HTS Assay for Compounds that Act as Enhancers of the Vanilloid Receptor 1 (AID 488979); also: potency is read from the fitted curve at half-maximal effect
In short: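 Calcium influx kinetics via Fluo-8 (480/520 nm) in TRPV1-expressing cells, 2000/well cultured overnight at 35.5C. Compound-alone read 3 min (agonist phase), followed by EC20 capsaicin challenge for 2 min (enhancer phase).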

[11] = NCATS anti-infectives library activity on the primary C. elegans qHTS viability assay (AID 1745855; calls by dose curve)
In short: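 Viability is taken from GFP fluorescence of PE254-GFP-FLuc C. elegans imaged by laser cytometry over 7 days. Ten L1 worms per well grow at 21 °C on TOP10 E. coli capsules with titrated compound; levamisole marks toxicity.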

[12] = High Content Imaging Cell-Based qHTS for Inhibitors of the mTORC1 Signaling Pathway in MEF Cells (AID 2667); also: potency is read from the fitted curve at half-maximal effect
In short: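 Immunofluorescence for rpS6 phosphorylation in MEFs of Tsc2-/-, p53-/- background rescued with WT Tsc2. Compound exposure lasted 24 hrs. Inhibition was scored against rapamycin-treated control wells.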

[13] = Cytometry Cell-Based qHTS for Inhibitors of the mTORC1 Signaling Pathway in MEF cells (AID 2668); also: potency is read from the fitted curve at half-maximal effect
In short: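 Pathway inhibition in WT Tsc2-rescued Tsc2-/-, p53-/- MEFs is measured as the Alexa-488 phospho-rpS6 to propidium iodide intensity ratio after 24 hrs of compound at 37 degree Celsius. PI-stained cell number gives viability.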

[14] = target: D(1A) dopamine receptor (Homo sapiens) (UniProt P21728); experiment: HTS Assay for Allosteric Agonists of the Human D1 Dopamine Receptor: Primary Screen for Potentiators (AID 488982); also: potency is read from the fitted curve at half-maximal effect
In short: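 Calcium flux in an inducible, force-coupled HEK293 Trex D1 line (overnight at 30 C): agonist mode is the 180 s kinetic read after compound; potentiator mode is the following 180 s read after dopamine at EC20.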

[15] = Validation screen for small molecules that induce genotoxicity in human embryonic kidney (HEK293T) cells expressing luciferase-tagged ELG1 (AID 493106); also: potency is read from the fitted curve at half-maximal effect
In short: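 HEK293T cells expressing luciferase-tagged ELG1 were exposed to compound or DMSO vehicle for 16 hr at 37 °C, 5% CO2. Genotoxic stress raises ELG1 levels, so increased luciferase signal after ONE-Glo addition and 30 min at room temperature marks hits.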

[16] = qHTS for Activators of Parkin Expression: LOPAC Validation Assay (NLuc Reporter) (AID 720572; also: potency is read from the fitted curve at half-maximal effect)
In short: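 Parkin promoter-driven FLuc/NLuc neuronal reporter cells; 24 h plating, 7-pt dose response, 24 h at 37 C/5% CO2; FLuc then NanoLuc reagent, 10 min each, luminescence; DMSO/positive control normalized.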

[17] = qHTS for Activators of Parkin Expression: LOPAC Validation Assay (FLuc Reporter) (AID 720573; also: potency is read from the fitted curve at half-maximal effect)
In short: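 A neuronal cell line harbouring FLuc and NLuc reporters behind the Parkin promoter was exposed to compounds for 24 h. Firefly luciferase signal, measured after 10 min with detection reagent, was scaled to DMSO and positive-control wells.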

[18] = Counterscreen qHTS for small molecule stabilizers of the endoplasmic reticulum resident proteome: GLuc-NoTag assay (AID 1508627); also: potency is read from the fitted curve at half-maximal effect
In short: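 Luminescence of Gaussia luciferase secreted into the medium (coelenterazine, 0.07x final, unlysed cells) was the read-out. Human SH-SY5Y neuroblastoma cells constitutively secreting untagged GLuc received compound for 19 h, then 100 nM thapsigargin for 4 h.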

[19] = Confirmatory qHTS for small molecule stabilizers of the endoplasmic reticulum resident proteome: Secreted ER Calcium Modulated Protein (SERCaMP) assay (AID 1508628); also: potency is read from the fitted curve at half-maximal effect; nearly all actives have a fitted effect of over 40% in size
In short: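 We seeded SH-SY5Y-GLuc-SERCaMP cells, added compounds (three concentrations in the primary run, eleven up to 76.6 uM in confirmation), incubated 16 h, depleted ER calcium with thapsigargin, and read luciferase 4 h later.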

[20] = Cell Viability qHTS for small molecule stabilizers of the endoplasmic reticulum resident proteome (AID 1508629); settings: cell viability counter-screen, 100 nM thapsigargin for final 4 h;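 also: potency is read from the fitted curve at half-maximal effect; compound exposure about 46 h in total before the viability read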
[21] = target: ATP-dependent 6-phosphofructokinase (Trypanosoma brucei brucei) (UniProt O15648); experiment: qHTS Validation Assay to Find Inhibitors of T. brucei phosphofructokinase (AID 485368); settings: activity change, negative = inhibition: at 57.5 µM (top of the series); also: potency is read from the fitted curve at half-maximal effect
In short: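 Activity was normalized between 1x (1.25 nM) PFK wells as no inhibition and enzyme-free wells as full inhibition, from luminescence after ADP-Glo detection of ADP made from 0.5 mM F6P and 0.1 mM ATP over 45 min.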

[22] = target: ATPase family AAA domain-containing protein 5 (Homo sapiens) (UniProt Q96QE3); experiment: Validation screen for small molecules that inhibit ELG1-dependent DNA repair in human embryonic kidney (HEK293T) cells expressing luciferase-tagged ELG1 (AID 493107); settings: HEK293T ELG1-luciferase level, luminescence, 5-fluorouridine co-treatment, 16 h; series mostly up to 46.1 µM; also: potency is read from the fitted curve at half-maximal effect; nearly all actives have a fitted effect of over 70% in size
In short: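 HEK293T cells expressing luciferase-tagged ELG1 were co-treated with 5-fluorouridine and compound or DMSO for 16 hr at 37 °C, 5% CO2. Luciferase activity was then read with ONE-Glo after 30 min at room temperature; suppressed signal indicates blocked ELG1 function.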

[23] = Nrf2 qHTS screen for inhibitors: Validation (AID 493153; active = well fitted inhibition curve with a large enough effect in the main read-out, with a control signal flat, not every such curve was filed as active; inconclusive = small, poorly fitted or top-dose-only effect, or effect the other way, or a change in a side signal; inactive = no such curve, though single readings can be large or run the other way; also: potency is read from the fitted curve at half-maximal effect)
In short: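 A549 cells carrying an ARE-driven firefly luciferase reporter, in 5% FBS OPTI-MEM, were treated with compounds in concentration-response for 18-24 h at 37°C. Viability was read by CellTiter-Fluor fluorescence, then Nrf2 activity by luciferase luminescence.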

[24] = qHTS for Inhibitors of ATXN expression: Validation (AID 588378); also: potency is read from the fitted curve at half-maximal effect; nearly all actives have a fitted effect of over 75% in size
In short: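 Validation of ATXN2 expression inhibitors uses a cell-based luciferase fusion reporter in HEK293 cells, with 24 h compound exposure and paired viability (fluorescence) and reporter (luminescence) end-point reads.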

Measured: Potency
Tags tell the direction and shape of the fitted curve.

Chain of UniProt P21728 (P21728 whole entry, looked up): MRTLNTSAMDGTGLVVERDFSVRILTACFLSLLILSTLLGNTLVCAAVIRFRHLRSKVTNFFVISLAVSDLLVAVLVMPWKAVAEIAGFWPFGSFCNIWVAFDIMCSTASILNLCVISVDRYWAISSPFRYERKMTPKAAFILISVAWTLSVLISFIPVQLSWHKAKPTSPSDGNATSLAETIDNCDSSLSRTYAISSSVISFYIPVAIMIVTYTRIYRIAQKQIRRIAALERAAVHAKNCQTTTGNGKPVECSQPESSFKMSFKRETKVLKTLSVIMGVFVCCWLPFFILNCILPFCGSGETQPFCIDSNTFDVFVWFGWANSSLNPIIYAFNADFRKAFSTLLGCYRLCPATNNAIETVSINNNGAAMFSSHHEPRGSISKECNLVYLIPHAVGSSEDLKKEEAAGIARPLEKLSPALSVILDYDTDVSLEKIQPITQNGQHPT
Chain of UniProt Q8NER1 (Q8NER1 whole entry, looked up): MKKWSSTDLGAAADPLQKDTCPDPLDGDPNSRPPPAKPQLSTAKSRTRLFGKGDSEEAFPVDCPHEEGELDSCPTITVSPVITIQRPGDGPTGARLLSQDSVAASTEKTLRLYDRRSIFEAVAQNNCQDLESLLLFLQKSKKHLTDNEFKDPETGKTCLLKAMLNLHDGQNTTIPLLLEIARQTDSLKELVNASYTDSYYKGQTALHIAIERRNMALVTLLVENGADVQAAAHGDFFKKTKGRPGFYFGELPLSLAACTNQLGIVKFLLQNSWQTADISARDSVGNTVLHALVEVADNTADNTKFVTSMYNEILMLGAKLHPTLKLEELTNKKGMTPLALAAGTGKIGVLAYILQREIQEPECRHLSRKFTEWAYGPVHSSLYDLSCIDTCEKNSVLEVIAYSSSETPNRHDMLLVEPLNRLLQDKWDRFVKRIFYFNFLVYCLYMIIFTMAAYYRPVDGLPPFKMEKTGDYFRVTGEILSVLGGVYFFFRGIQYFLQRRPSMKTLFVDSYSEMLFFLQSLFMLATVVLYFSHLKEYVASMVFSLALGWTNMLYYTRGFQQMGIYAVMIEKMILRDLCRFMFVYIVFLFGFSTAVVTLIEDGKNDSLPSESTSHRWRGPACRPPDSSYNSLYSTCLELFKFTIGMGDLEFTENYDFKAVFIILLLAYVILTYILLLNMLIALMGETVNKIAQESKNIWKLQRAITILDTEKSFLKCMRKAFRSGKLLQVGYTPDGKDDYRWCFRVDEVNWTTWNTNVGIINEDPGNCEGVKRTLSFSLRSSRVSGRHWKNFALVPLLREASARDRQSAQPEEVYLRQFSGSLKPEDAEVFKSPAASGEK
Chain of UniProt Q96QE3 (Q96QE3 whole entry, looked up, the tested form may be a part): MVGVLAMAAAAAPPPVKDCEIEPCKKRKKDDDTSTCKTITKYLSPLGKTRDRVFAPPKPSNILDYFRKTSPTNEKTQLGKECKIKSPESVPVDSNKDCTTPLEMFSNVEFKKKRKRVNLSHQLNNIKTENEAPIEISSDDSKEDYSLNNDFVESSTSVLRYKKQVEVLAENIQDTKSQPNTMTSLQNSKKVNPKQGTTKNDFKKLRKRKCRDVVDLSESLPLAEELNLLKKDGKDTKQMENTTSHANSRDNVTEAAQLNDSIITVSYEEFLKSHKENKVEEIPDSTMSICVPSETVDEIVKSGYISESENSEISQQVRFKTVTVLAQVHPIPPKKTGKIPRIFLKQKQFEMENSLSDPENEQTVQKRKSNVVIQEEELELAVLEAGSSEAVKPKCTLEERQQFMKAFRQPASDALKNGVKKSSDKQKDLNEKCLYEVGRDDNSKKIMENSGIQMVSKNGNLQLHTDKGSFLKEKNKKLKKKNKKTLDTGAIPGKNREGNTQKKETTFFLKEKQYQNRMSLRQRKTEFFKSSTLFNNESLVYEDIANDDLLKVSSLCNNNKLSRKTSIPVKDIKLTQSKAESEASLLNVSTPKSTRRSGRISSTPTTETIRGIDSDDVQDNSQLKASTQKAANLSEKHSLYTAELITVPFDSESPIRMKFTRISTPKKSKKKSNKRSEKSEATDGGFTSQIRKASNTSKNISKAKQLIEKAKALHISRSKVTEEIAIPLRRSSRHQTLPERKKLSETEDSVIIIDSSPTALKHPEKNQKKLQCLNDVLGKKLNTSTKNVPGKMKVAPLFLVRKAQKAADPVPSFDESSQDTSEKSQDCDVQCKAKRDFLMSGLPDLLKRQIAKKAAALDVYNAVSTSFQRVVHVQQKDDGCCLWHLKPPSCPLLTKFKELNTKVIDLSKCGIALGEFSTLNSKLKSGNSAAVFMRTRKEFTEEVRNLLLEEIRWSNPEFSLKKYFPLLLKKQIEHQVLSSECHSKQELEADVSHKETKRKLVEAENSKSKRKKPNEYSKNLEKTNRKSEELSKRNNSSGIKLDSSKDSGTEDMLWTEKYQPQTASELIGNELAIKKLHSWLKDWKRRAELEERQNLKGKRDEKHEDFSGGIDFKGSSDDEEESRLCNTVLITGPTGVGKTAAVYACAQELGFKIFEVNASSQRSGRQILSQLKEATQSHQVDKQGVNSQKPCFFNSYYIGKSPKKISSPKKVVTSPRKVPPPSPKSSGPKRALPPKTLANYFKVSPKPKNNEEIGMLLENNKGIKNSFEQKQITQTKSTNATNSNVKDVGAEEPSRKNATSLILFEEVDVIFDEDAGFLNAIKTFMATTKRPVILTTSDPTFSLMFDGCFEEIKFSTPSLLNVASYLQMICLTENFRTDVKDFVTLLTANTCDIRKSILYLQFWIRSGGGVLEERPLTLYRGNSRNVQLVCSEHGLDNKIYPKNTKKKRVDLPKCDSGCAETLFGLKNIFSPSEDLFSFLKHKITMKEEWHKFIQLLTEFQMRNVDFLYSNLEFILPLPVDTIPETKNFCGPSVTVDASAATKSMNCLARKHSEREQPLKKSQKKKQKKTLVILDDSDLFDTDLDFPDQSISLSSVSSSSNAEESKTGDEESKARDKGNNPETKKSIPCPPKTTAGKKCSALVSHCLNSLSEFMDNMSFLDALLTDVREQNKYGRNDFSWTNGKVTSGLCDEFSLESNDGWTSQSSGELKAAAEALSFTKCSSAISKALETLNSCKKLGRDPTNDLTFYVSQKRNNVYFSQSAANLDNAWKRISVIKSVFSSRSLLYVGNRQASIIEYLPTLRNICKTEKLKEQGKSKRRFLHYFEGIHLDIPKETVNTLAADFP
Chain of UniProt O15648 (O15648 whole entry, looked up): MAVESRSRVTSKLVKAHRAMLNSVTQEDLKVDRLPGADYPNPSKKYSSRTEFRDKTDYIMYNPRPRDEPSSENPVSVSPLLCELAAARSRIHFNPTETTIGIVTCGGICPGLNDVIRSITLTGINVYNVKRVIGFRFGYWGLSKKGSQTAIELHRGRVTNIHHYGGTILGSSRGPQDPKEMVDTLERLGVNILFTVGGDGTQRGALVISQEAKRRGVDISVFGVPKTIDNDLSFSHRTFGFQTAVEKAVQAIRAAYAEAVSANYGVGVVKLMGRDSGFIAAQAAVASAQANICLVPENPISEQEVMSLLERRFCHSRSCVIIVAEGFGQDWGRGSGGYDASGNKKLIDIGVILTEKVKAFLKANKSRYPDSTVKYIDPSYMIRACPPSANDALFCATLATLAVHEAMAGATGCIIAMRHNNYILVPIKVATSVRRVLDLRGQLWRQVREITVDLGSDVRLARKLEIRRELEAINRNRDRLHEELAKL
Chain of UniProt Q99549 (Q99549 whole entry, looked up): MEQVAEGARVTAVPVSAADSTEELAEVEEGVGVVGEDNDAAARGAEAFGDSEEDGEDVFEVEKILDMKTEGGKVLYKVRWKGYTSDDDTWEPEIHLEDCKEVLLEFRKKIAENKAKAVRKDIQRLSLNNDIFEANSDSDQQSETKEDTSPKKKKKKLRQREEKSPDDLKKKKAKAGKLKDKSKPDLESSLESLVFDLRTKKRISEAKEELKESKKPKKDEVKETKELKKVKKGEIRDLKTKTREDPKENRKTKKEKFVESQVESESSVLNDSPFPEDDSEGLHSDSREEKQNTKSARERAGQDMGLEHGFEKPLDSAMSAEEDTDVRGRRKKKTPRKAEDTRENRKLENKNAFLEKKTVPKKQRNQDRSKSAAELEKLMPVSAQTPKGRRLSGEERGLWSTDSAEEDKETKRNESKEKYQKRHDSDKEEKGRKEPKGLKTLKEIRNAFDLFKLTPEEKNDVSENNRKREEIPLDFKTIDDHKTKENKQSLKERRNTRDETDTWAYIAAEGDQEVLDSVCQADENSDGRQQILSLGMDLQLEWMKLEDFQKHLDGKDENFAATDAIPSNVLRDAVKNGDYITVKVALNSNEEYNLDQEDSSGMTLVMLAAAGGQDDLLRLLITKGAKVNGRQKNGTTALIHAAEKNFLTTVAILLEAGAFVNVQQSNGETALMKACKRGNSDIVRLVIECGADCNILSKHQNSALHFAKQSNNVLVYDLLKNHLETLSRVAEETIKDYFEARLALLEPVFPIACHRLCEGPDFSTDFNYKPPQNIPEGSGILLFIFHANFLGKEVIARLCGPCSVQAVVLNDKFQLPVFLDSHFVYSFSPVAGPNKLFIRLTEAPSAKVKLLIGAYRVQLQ
Chain of UniProt P02791 (P02791 whole entry, looked up): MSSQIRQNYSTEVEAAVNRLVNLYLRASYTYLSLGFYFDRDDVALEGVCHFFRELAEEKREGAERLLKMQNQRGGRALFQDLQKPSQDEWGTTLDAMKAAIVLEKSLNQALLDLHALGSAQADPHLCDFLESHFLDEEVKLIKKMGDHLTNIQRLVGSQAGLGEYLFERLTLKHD

O=S(=O)(NCCNC/C=C/c1ccc(Br)cc1)c1cccc2cnccc12
active: [1] 8.91 µM | [2] 12.6 µM | [4] 5.01 µM
inconclusive: [3] 11.2 µM [inhibitor, single point] | [5] 17.8 µM [inhibitor, single point] | [6] 28.2 µM [inhibitor, partial curve] | [8] 31.6 µM [activator, single point] | [9] 44.7 µM [inhibitor, partial curve] | [10] 17.8 µM [activator, single point]
inactive: [7] | [11]

CC[C@H](C)C(=O)O[C@H]1CCC=C2C=C[C@H](C)[C@H](CC[C@@H]3C[C@@H](O)CC(=O)O3)[C@H]21
inconclusive: [12] 16.5 µM [falling, single point] | [13] 9.27 µM [falling, partial curve, poor fit] | [14] 4.11 µM [activator, single point] | [15] 10.3 µM [activator, partial curve, poor fit] | [16] 13 µM [activator, partial curve] | [17] 11.6 µM [activator, partial curve] | [18] 50.1 µM [inhibitor, partial curve, poor fit] | [19] 7.94 µM [inhibitor, partial curve, poor fit] | [20] 12.6 µM [cytotoxic, partial curve]

Nc1ncnc2c1c(I)cn2[C@@H]1C[C@H](N)[C@@H](O)[C@H]1O
inconclusive: [13] 11.7 µM [falling, partial curve, poor fit] | [21] 13.5 µM [falling, partial curve] | [23] 16.4 µM [inhibitor, partial curve, poor fit] | [16] 20.6 µM [activator, single point]
active: [22] 5.17 µM | [24] 10 µM | [17] 20.6 µM
